Test results from PMC4336329 (PLoS ONE, 2015).
The campaign covered roughly 310,000 compounds. About 2,200 (0.71%) showed an effect of 50% or more. The effect is printed as a negative number. The list shows a part of the results.

What follows are molecules tested against human ether-à-go-go-related gene (hERG) potassium channel (human, UniProt Q12809) (assay: primary screen, population patch clamp on CHO cells stably expressing hERG).
Sequence of human ether-à-go-go-related gene (hERG) potassium channel (Q12809 whole entry, looked up): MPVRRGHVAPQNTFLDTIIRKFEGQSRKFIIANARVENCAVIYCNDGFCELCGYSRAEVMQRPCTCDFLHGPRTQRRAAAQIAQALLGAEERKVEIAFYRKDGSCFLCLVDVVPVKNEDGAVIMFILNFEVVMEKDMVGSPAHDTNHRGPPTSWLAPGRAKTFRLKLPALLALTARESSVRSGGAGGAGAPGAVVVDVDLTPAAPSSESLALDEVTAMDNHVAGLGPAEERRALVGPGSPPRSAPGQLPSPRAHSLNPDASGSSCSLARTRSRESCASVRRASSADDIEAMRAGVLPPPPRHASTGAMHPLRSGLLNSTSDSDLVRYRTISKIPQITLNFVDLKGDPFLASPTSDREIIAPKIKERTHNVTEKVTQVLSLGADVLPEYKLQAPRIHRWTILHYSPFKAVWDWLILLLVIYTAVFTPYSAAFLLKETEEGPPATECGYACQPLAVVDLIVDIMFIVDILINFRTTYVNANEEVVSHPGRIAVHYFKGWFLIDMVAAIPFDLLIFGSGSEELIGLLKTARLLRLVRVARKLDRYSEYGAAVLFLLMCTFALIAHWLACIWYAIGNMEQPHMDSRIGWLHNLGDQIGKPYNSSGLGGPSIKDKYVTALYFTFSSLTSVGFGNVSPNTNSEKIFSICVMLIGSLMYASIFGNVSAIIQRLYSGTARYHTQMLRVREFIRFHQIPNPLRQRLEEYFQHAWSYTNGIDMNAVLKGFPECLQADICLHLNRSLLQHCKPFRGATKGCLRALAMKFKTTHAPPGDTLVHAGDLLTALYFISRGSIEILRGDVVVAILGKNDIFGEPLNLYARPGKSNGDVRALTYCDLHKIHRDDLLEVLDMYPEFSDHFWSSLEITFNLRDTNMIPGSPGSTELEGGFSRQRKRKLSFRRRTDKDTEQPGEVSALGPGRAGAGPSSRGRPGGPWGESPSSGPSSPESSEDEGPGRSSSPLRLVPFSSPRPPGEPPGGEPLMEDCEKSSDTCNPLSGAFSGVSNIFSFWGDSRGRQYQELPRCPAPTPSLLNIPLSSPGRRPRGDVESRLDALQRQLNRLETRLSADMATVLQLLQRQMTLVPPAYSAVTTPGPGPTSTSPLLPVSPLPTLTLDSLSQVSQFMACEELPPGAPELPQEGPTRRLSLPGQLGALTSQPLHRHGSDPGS

SMILES | hERG current change (%, negative = inhibition) at 1uM
C/C=C(\C)CN1CCC(n2nccc2NC(=O)CCCc2ccccc2)CC1 | -13.4%
Cc1c(C(=O)N2CCN(c3ccccn3)CC2)oc2ccccc12 | -3.84%
CCC(C(=O)NC(CC(=O)O)c1ccc(Cl)cc1)c1ccccc1 (centres unmarked) | 18.9%
CCOC(=O)N1CCN(c2ncnc3nc[nH]c23)CC1 | 12.4%
COc1ccccc1C(CNC(=S)NCc1ccccc1)N1CCCC1 (centres unmarked) | 9.49%
CCOC(=O)c1cnc2c(Cl)c(Cl)ccc2c1N1CCN(C)CC1.Cl | -1.79%
Cc1ccc(S(=O)(=O)N2CCOCC2)cc1NC(=O)Cn1nc(C)c([N+](=O)[O-])c1C | 17.4%
COc1ccc(NC(=O)c2ccc3nc(C)sc3c2)cc1 | 12.3%
CC(C)CN1C(=O)c2ccc(NC(=O)Cc3ccccc3)cc2C1=O | 11.4%
O=S(N1CCCCC1)C12CC3CC(CC(C3)C1)C2 (centres unmarked) | 8.76%
O=[N+]([O-])c1cc(C(F)(F)F)ccc1NCC1CCCO1 (centres unmarked) | 4.11%
COCCn1c(-c2ccc(-c3ccccc3Cl)o2)nc2c1c(=O)[nH]c(=O)n2CC(C)C | 20.2%
COc1ccc(OC)c(CCNC(=O)c2ccc3c(c2)N(Cc2ccc(F)cc2)CCS3)c1 | 17.9%
C=CCn1c(SCC(N)=O)nnc1-c1cnccn1 | 10.8%
c1ccc(CNc2c3ccccc3nc3ccccc23)cc1 | -74.5%
CCN(CC)C(=O)CSc1n[nH]c(=S)n1N | 12.5%
Cc1[nH]n(-c2ccc([N+](=O)[O-])cc2)c(=O)c1C=NCCc1c[nH]c2ccccc12 | 11.9%
CCN(CC)CCCN=Cc1c(O)n(CCc2ccc(OC)c(OC)c2)c(=O)[nH]c1=O | 0.515%
Cc1noc(C)c1S(=O)(=O)N(CC(=O)O)c1ccc2c(c1)OCO2 | 0.552%
CC1CCCC/C1=N\NC(=S)NCCc1ccccc1 (centres unmarked) | 14.7%
COC(=O)c1sccc1NC(=O)Cc1ccc(Br)cc1 | 12.7%
Cc1cc(C(=O)NCc2cccs2)cs1 | 13%

SMILES | hERG current change (%, negative = inhibition) at 1uM
CN(C)C(=O)c1ccccc1-c1ccccc1 | 12.8%
O=C(NCCOc1ccccc1)C1CCC(=O)N(C2CCCCCC2)C1 (centres unmarked) | 11.5%
Cc1nn(Cc2ccccc2Cl)c(C)c1C(=O)NC1CCCc2ccccc21 (centres unmarked) | 6.95%
CCC1CCC(C(=O)NNC(=O)c2cc(-c3ccco3)[nH]n2)CC1 (centres unmarked) | 4.43%
O=C(NCC1COCCO1)C1CCN(S(=O)(=O)c2ccccc2)CC1 (centres unmarked) | 5.66%
CCC(=O)NCCc1nc2cc(NC(=O)c3ccc(Cl)cc3)ccc2n1C | 14.6%
CCCCn1c(N)c(N(Cc2ccccc2OC)C(=O)CSCC(=O)Nc2cccc(C)c2)c(=O)[nH]c1=O | 9.61%
CS(=O)(=O)C1=C(O)C(=O)N(c2ccccc2)C1c1ccccc1 (centres unmarked) | 12.5%
COc1cc2c(cc1OC)CN(Cc1ccc(C)cc1)CC2 | -6.85%
N#Cc1cccc(NC(=O)C2CCCN(C(=O)c3ccc(Cl)cc3)C2)c1 (centres unmarked) | 4.5%
COc1cc(NC(=O)c2cccs2)cc(OC)c1 | -0.578%
Cn1c(=O)n(C)c2cc(S(=O)(=O)Nc3cc(Cl)ccc3O)ccc21 | 12.6%
CCn1c(SCC(=O)NC2CCCCC2)nnc1-c1cc2cccc(OC)c2o1 | 1.93%
O=C(c1csc2c1CCCC2)N1CCN(c2cccc(C(F)(F)F)c2)CC1 | 13.6%
CCC(=O)N1CCCc2cc(S(=O)(=O)N3CCN(c4ncccn4)CC3)ccc21 | 9.45%
O=C(Cn1cc(C(F)(F)F)cc(Cl)c1=O)NCc1ccc(F)cc1 | 11%
CCC1(c2ccc(F)cc2)NC(=O)N(CC(=O)N(C)C2CCS(=O)(=O)C2)C1=O (centres unmarked) | 6.01%
Cn1c(NC(=O)c2cccs2)cc(=O)n(C)c1=O | 11.2%
COc1ccc(NC(=O)c2cc(-c3ccc(C)o3)nc3ccccc23)c(OC)c1 | 12.8%
CCc1[nH]nc(C(=O)N2CCCC(C(=O)c3cccc(OC(C)C)c3)C2)c1C (centres unmarked) | 19.2%
O=C(Nc1ccc(N2CCN(c3ncccc3C(F)(F)F)CC2)nc1)c1cccs1 | 11.4%
Cc1oc2ccccc2c1CNC(=O)N(C)C | 15.7%
